Assay results taken from publication PMC6919601, “Identification of Plasmodium dipeptidyl aminopeptidase allosteric inhibitors by high throughput screening” (PLoS ONE, 2019).
Among all 110,000 compounds or so, about 230 (0.21%) showed an effect of 50% or more. The list shows a part of the results.

Molecular target: DPAP1 (Plasmodium falciparum, UniProt Q8IIJ9)
Assay: primary screen, percent inhibition; read by cleavage of a fluorogenic dipeptide substrate; higher = more effect of the substance
Design: species or system P. falciparum D10 trophozoite lysates; single well
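Also: 30 min substrate incubation versus DMSO and 10 µM JCP410 controls.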

DPAP1, sequence (Q8IIJ9 whole entry, looked up): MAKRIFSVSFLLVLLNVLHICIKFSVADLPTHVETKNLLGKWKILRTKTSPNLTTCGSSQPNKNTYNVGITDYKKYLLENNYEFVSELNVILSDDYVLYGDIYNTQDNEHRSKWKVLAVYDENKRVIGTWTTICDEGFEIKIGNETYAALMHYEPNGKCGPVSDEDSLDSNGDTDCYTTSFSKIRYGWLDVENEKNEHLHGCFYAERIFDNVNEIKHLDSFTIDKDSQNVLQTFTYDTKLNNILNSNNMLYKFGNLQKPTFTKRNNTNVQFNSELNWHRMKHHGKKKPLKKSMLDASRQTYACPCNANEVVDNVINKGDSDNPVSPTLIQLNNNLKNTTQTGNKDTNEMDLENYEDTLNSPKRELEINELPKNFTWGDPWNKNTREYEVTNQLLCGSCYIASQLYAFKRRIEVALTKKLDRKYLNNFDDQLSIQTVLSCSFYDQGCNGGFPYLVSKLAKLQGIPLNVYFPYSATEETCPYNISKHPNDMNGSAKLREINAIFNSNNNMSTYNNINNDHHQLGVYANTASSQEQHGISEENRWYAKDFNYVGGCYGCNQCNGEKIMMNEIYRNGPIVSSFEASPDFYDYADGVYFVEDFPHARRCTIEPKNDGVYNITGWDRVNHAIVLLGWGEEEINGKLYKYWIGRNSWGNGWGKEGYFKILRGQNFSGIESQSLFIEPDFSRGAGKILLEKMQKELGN

Row | Structure (SMILES) | % Inhibition @ 10 uM [%]
1 | Cc1cccc(Cn2c(Sc3nnc(C)s3)nc3c2c(=O)[nH]c(=O)n3C)c1 | -4.54
2 | O=C(O)CSc1ccc(C(F)(F)F)cc1Cl | -0.0108
3 | CC(C)Cn1c(=O)c2ccccc2n2c(CCC(=O)NCc3ccc(F)cc3)nnc12 | -4.21
4 | CC(=O)Nc1ccc(S(=O)(=O)Nc2nc3ccccc3nc2Nc2cccc(S(N)(=O)=O)c2)cc1 | 1.42
5 | CC(=O)NC(Cc1c[nH]c2ccccc12)C(=O)NCCOc1ccc(C(C)(C)c2ccccc2)cc1 (stereo not shown) | 10.6
6 | Cc1cc(S(=O)(=O)c2cc3ccc(O)c(C)c3oc2=O)ccc1F | 3.75
7 | COC(=O)c1ccc(NC(=O)c2cccs2)cc1 | -5.38
8 | O=C1NCCCC[C@@H]1NC1CCc2ccccc2C1 (stereo partly shown) | -3.6
9 | O=C1NC(c2c(O)ccc3ccccc23)Nc2sc3c(c21)CCCC3 (stereo not shown) | 1.24
10 | O=C(CSc1nc(O)cc(-c2ccccc2)n1)NCC1CCCO1 (stereo not shown) | 2.01
11 | O=C(O)C1CCCCC1C(=O)Nc1ccc2c(c1)OCCO2 (stereo not shown) | -4.82
12 | CC1CN(C(=O)Cn2cc(SCC(=O)NC(C)(C)C)c3ccccc32)CC(C)O1 (stereo not shown) | 6.05
13 | C=CCSc1nc(O)c2cnn(-c3ccc(C)cc3)c2n1 | -9.18
14 | Cc1cccc(C(=O)Nc2cccnc2)c1 | -0.598
15 | O=C(O)COc1ccc(/C=c2\sc3nc4ccccc4n3c2=O)cc1 | 6.23
16 | Cc1ccccc1CN(c1ccc(C(=O)Nc2ccc3c(c2)OCCO3)cc1)S(C)(=O)=O | 1.94
17 | CCc1ccc(OCC(=O)Nc2ccc(S(=O)(=O)N3CCCC3)cc2)c(Br)c1 | 4.22
18 | Cc1cc(C)nc(SCCC(=O)Nc2ccc(Br)cc2)n1 | -3.65
19 | Cc1oc(-c2ccc(Cl)cc2)nc1CN1CCC(C(=O)NC2CCCCCC2)CC1 | 0.689
20 | CCCNC(=O)[C@@H](c1ccccc1)N1Cc2ccccc2C1=O | 1.26
21 | O=C1CCCc2occ(-c3ccc([N+](=O)[O-])cc3)c21 | 0.98
22 | Cc1ccc(NC(=O)c2ccc(N3C(=O)C4C5C=CC(C5)C4C3=O)cc2)cc1C (stereo not shown) | 2.63

Row | Structure (SMILES) | % Inhibition @ 10 uM [%]
23 | CC(C)C[C@H](NC(=O)OCc1ccccc1Br)C(=O)NCC#N | -10.1
24 | Cc1ccc(-c2cc(-c3cccs3)nc(Br)c2C#N)c(C)c1 | 4.22
25 | CC1CCCC(C)N1C(=O)c1cc2ccccc2oc1=O (stereo not shown) | -5.11
26 | CCN1C(=O)S/C(=C/c2ccc(-c3ccccc3C#N)o2)C1=O | 4.44
27 | COC(=O)c1cnn2c1NCN(CCc1ccc(OC)c(OC)c1)C2 | 0.66
28 | Cc1ccccc1CNC(=O)Cn1nc(C)c2c(C)n(-c3ccccc3)nc2c1=O | -2.49
29 | CC(C)NS(=O)(=O)c1cccnc1N1CCN(C)CC1 | 4.83
30 | CCOc1cc(C(=O)N2CCN(C/C=C/c3ccccc3)CC2)cc(OCC)c1OCC | 2.32
31 | COc1ccc(C2C(C(=O)c3ccc(Cl)cc3)=C(O)C(=O)N2c2cccnc2)c(OC)c1 (stereo not shown) | 0.727
32 | O=C(Nc1cccc([N+](=O)[O-])c1)C12CC3CC(CC(C3)C1)C2 | 3.12
33 | Cc1nc(N2C(=O)c3oc4ccccc4c(=O)c3C2c2ccc(O)cc2)sc1C (stereo not shown) | -6.23
34 | COc1ccc(CN2CCc3ccccc3C2)cc1C | -0.127
35 | CC1=C(C(=O)NCCCN(Cc2ccccc2)C(C)C)C2(CCCCCC2)OC1=O | -3.22
36 | Cc1cccc(OCCCCCCc2c(C)n[nH]c2C)c1 | 5.01
37 | CCOC(=O)N1CCC(NC(=O)C2CCN(S(C)(=O)=O)CC2)CC1 | -4.97
38 | CC1CCN(c2nc(Cl)nc(N3CCC(C)CC3)n2)CC1 | 0.343
39 | CCCCC(=O)Nc1cc(OC)ccc1OC | -3.9
40 | CC(=O)c1c(C)nn(-c2nc3ccccc3s2)c1O | 3.16
41 | Cc1nc2c(c(C)c1CCC(=O)N1CCC(C)CC1)c(=O)n(C)c(=O)n2C | -3.1
42 | CN(C1CCCCC1)S(=O)(=O)N1CCCC(C(=O)NCc2ccc(Cl)cc2)C1 (stereo not shown) | 2.27
43 | Cc1cc(C)cc(OCCc2c(C)nc(N)nc2O)c1 | 0.9
44 | Cc1ccc(C)c(CN2CCN(CCO)CC2)c1 | -0.856

Row | Structure (SMILES) | % Inhibition @ 10 uM [%]
45 | CCC(C)NC(=O)CS(=O)Cc1nc(-c2cccc(OC)c2)oc1C (stereo not shown) | 0.689
46 | CCCOc1ccc(C2C(C(=O)OC)=CN(C(C)C)C=C2C(=O)OC)cc1OC | 1.66
47 | CN1C(C(=O)N2CCN(C(=O)C(C)(C)C)CC2)=CC(c2ccco2)=NS1(=O)=O | 0.655
48 | COc1ccccc1CNC(=O)NCc1noc2ccccc12 | 4.58
49 | O=C(O)/C=C\C(=O)Nc1ccccc1Cl | -5.5
50 | Cc1cc(NS(=O)(=O)c2ccc(NC(=O)c3ccc4c(c3)OCO4)cc2)nc(C)n1 | 0.163
51 | O=C(CCCN1C(=O)c2cccc3cccc(c23)C1=O)N1CCN(C/C=C/c2ccccc2)CC1 | -2.13
52 | O=c1oc2c3c(ccc2c2ccccc12)OCN(CCc1ccccc1)C3 | -0.808
53 | O=C(NC1CCCC1)c1ccc(Cl)c([N+](=O)[O-])c1 | -4.91
54 | O=C(NCCCn1ccnc1)c1cc(-c2ccccc2)nc2ccccc12 | -0.116
55 | COc1cccc(C(=O)Nc2nc(-c3ccc(S(=O)(=O)N4CCCC4)cc3)cs2)c1 | 7.48
56 | CN1CCC(N(C)C2CCC(c3ccccc3)CC2)CC1 (stereo not shown) | -0.0908
57 | CN(C)c1ccccc1NC(=O)c1scc2c1CCCC2 | -3.09
58 | Cc1cc(NCCc2ccc(Cl)cc2)n2ncnc2n1 | -2.8
59 | CC(=O)c1ccc(OCC(O)CN2CCC(Cc3ccccc3)CC2)cc1 (stereo not shown) | 1.87
60 | Cc1cccc(C)c1OCC(=O)N(Cc1cccs1)C1CCS(=O)(=O)C1 (stereo not shown) | -1.33
61 | CC(=O)Nc1ccc(NC2(C)C(=O)c3ccccc3C2=O)cc1 | -0.424
62 | CCc1ccc(-c2cn3c(n2)sc2cc(Cl)ccc23)cc1 | -3.77
63 | CN(Cc1ccccc1)C(=O)c1nn(C)c2c1CSc1ccccc1-2 | 4.86
64 | Cc1nn(Cc2cccc3ccccc23)c(C)c1NC(=O)COc1ccc(F)cc1 | -3.34
